Source: a collection of fitness landscapes (doi:10.1126/science.1257360)
The other results are listed elsewhere or left out.

B1: PhoQ; a variant is named by its letters at X, in order, P23837 (parent)
chain: MKKLLRLFFPLSLRVRFLLATAAVVLVLSLAYGMVALIGYSVSFDKTTFRLLRGESNLFYTLAKWENNKLHVELPENIDKQSPTMTLIYDENGQLLWAQRDVPWLMKMIQPDWLKSNGFHEIEADVNDTSLLLSGDHSIQQQLQEVREDDDDAEMTHSVAVNVYPATSRMPKLTIVVVDTIPVELKSSYMVWSWFIYVLSANLLLVIPLLWVAAWWSLRPIEALAKEVRELEEHNRELLNPATTRELTSLVRNLNRLLKSERERYDKYRTTLTDLTHSLKTPLXXLQXXLRSLRSEKMSVSDAEPVMLEQISRISQQIGYYLHRASMRGGTLLSRELHPVAPLLDNLTSALNKVYQRKGVNISLDISPEISFVGEQNDFVEVMGNVLDNACKYCLEFVEISARQTDEHLYIVVEDDGPGIPLSKREVIFDRGQRVDTLRPGQGVGLAVAREITEQYEGKIVAGESMLGGARMEVIFGRQHSAPKDE

Variants of: B1
Experiment: enrichment ratio after two sorts for PhoP signalling (ratio (wild type AVST 3.29)); higher = more functional
Details: with PhoP (E. coli)

Variant | enrichment ratio
HQTK | ≤ 0.25
KTIV | ≤ 0.25
FFVQ | ≤ 0.25
DPYP | ≤ 0.25
IVLC | ≤ 0.25
GMPF | ≤ 0.25
VINN | ≤ 0.25
RLHS | ≤ 0.25
KSVM | ≤ 0.25
HARC | ≤ 0.25
QIFG | ≤ 0.25
LVHF | ≤ 0.25
FDKV | ≤ 0.25
QARL | ≤ 0.25
NEFW | ≤ 0.25
WVTG | ≤ 0.25
TKQF | ≤ 0.25
MSPK | ≤ 0.25
NGKI | ≤ 0.25
VKLE | ≤ 0.25
MLKN | ≤ 0.25
SMQN | ≤ 0.25
YVTF | ≤ 0.25
SHYA | ≤ 0.25
WQGI | ≤ 0.25

Variant | enrichment ratio
PWPW | ≤ 0.25
FNTF | ≤ 0.25
FPWC | ≤ 0.25
GRKK | ≤ 0.25
LKVD | ≤ 0.25
EFGA | ≤ 0.25
MTFG | ≤ 0.25
HKTV | ≤ 0.25
CASL | ≤ 0.25
RYGK | ≤ 0.25
NRFY | ≤ 0.25
RHLG | ≤ 0.25
KLSC | ≤ 0.25
KDHE | ≤ 0.25
AGIK | 3.7
PFFL | ≤ 0.25
SDHM | ≤ 0.25
FITM | ≤ 0.25
DNIY | ≤ 0.25
LSPF | ≤ 0.25
KAGT | ≤ 0.25
NNHF | ≤ 0.25
RQHV | ≤ 0.25
RRQW | ≤ 0.25
YYHR | ≤ 0.25

Variant | enrichment ratio
AYTY | ≤ 0.25
WYKP | ≤ 0.25
AFAT | ≤ 0.25
RGAF | ≤ 0.25
LRRD | ≤ 0.25
RPML | ≤ 0.25
QNCC | ≤ 0.25
YGEL | ≤ 0.25
NNPH | ≤ 0.25
YVDM | ≤ 0.25
PQHW | ≤ 0.25
FLGR | ≤ 0.25
ENLG | ≤ 0.25
SDCS | 5.14
SILT | 9.39
IRHC | ≤ 0.25
MEKL | ≤ 0.25
PVEG | ≤ 0.25
WERL | ≤ 0.25
TSDG | 0.59
LCKG | ≤ 0.25
AMYY | ≤ 0.25
LNEM | ≤ 0.25
LLVP | ≤ 0.25
SLSQ | 6.85

Variant | enrichment ratio
WISG | ≤ 0.25
ILDY | ≤ 0.25
HMKP | ≤ 0.25
WGRM | ≤ 0.25
WNLG | ≤ 0.25
LNML | 2.48
WVPT | ≤ 0.25
HWVN | ≤ 0.25
LNEQ | ≤ 0.25
ICAA | ≤ 0.25
KTYH | ≤ 0.25
EGQF | ≤ 0.25
DPFE | ≤ 0.25
KKIQ | ≤ 0.25
VGSI | 1.1
PRHK | ≤ 0.25
IHWP | ≤ 0.25
MHGF | ≤ 0.25
IQFS | ≤ 0.25
DTGE | ≤ 0.25
MMLP | ≤ 0.25
GTTS | ≤ 0.25
AMIQ | ≤ 0.25
VTQV | ≤ 0.25
WWFK | ≤ 0.25

Variant | enrichment ratio
EQNG | ≤ 0.25
QAAS | ≤ 0.25
NHMP | ≤ 0.25
MGQY | ≤ 0.25
MHSV | ≤ 0.25
DKQH | ≤ 0.25
INRQ | ≤ 0.25
YYFY | ≤ 0.25
LGQH | ≤ 0.25
REEY | ≤ 0.25
IMIN | ≤ 0.25
PSWF | ≤ 0.25
VCVK | ≤ 0.25
NNLA | ≤ 0.25
EKIC | ≤ 0.25
PFDS | ≤ 0.25
HAGM | ≤ 0.25
KRCP | ≤ 0.25
GHCA | ≤ 0.25
NKEL | ≤ 0.25
GAMY | ≤ 0.25
QVHW | ≤ 0.25
TWDL | ≤ 0.25
YFFR | ≤ 0.25
SIME | 2.93

Variant | enrichment ratio
LHTW | ≤ 0.25
NDCV | ≤ 0.25
EPIM | ≤ 0.25
YEIA | 0.354
WLHI | ≤ 0.25
FLIV | ≤ 0.25
WLLT | ≤ 0.25
FHRL | ≤ 0.25
TIVG | ≤ 0.25
KCPW | ≤ 0.25
FWVY | ≤ 0.25
HSLE | ≤ 0.25
VRTA | ≤ 0.25
AFVM | ≤ 0.25
LGAL | ≤ 0.25
MEIF | ≤ 0.25
LVFM | ≤ 0.25
TLHA | ≤ 0.25
KPVQ | ≤ 0.25
QYAE | ≤ 0.25
QSWK | ≤ 0.25
NEVQ | ≤ 0.25
SWHP | ≤ 0.25
AWMD | ≤ 0.25
NGSA | ≤ 0.25

Variant | enrichment ratio
QELS | ≤ 0.25
SICV | 16.6
ELTT | ≤ 0.25
NTCP | ≤ 0.25
KNWM | ≤ 0.25
PHMS | ≤ 0.25
FYQC | ≤ 0.25
THPP | ≤ 0.25
HPNM | ≤ 0.25
YWWF | ≤ 0.25
SMIG | 0.688
VDYD | ≤ 0.25
IFCG | ≤ 0.25
YGCF | ≤ 0.25
IYLN | ≤ 0.25
YKPM | ≤ 0.25
TTVE | ≤ 0.25
TKWL | 4.57
NWED | ≤ 0.25
EPTL | ≤ 0.25
MMPV | ≤ 0.25
MFQM | ≤ 0.25
SNKT | ≤ 0.25
LCSN | ≤ 0.25
RGTM | ≤ 0.25

Variant | enrichment ratio
VRPH | ≤ 0.25
HDNY | ≤ 0.25
TLAE | ≤ 0.25
DDMD | ≤ 0.25
VHIA | ≤ 0.25
ENVP | 9.36
LCFY | ≤ 0.25
TGYY | 22.5
YWGN | ≤ 0.25
PHKW | ≤ 0.25
QDLV | ≤ 0.25
IKPP | ≤ 0.25
LRGE | ≤ 0.25
LHIN | ≤ 0.25
VWVR | ≤ 0.25
ACFL | ≤ 0.25
HHRF | ≤ 0.25
TMPS | ≤ 0.25
YLFT | ≤ 0.25
DIKP | ≤ 0.25
